# Screen size: about 52,000 compounds; about 4,300 (8.3%) were called active. No stated cut-off is given here; in the data, active means survival mostly below about 52% (no sharp cut-off); inactive means mostly above about 56%. This is one part of the list.
# Test system: DeltatarO mutant
# Assay: growth inhibition of S. aureus wild type versus tarO mutant, primary screen, teichoic acid synthesis inhibitors, RN4220, OD600 (AID 463173)
# Conditions: OD600, 18 h, hits give low values, screened at 18.75 µg/mL (by protocol)
row,Structure (SMILES),survival
1,Cc1ccccc1C(=O)Nc1ccc2oc(-c3ccc(Cl)c(Cl)c3)nc2c1,inactive: 64%
2,COc1nnc(-c2ccc(N3CCCCC3)c(NC(=O)c3ccccc3)c2)c2ccccc12,active: 0%
3,O=C(NCC(c1cccnc1)N1CCc2ccccc21)C(=O)Nc1ccccc1F (stereo not drawn),inactive: 101%
4,CCc1cccc(NC(=O)c2cccc3c2C(=O)N(C2CCCCC2)C3)c1,inactive: 85%
5,CC(NC(=O)c1cc(-c2ccc(Cl)cc2)on1)c1ccccc1 (stereo not drawn),inactive: 142%
6,CCOC(=O)c1c(C)n(S(=O)(=O)c2ccc(C)cc2)c2ccc(NS(=O)(=O)c3ccc(C)cc3)cc12,inactive: 60%
7,COc1cc(OC)c(NC(=O)c2cn(C)c(=O)c3cc(OC)c(OC)cc23)cc1Cl,inactive: 60%
8,O=C(/C=C/c1ccccc1)N1CCN(Cc2cc(=O)n3nc(-c4ccccc4Cl)sc3n2)CC1,inactive: 77%
9,CN=C1S/C(=C\c2ccc(N3CCCC3)cc2)C(=O)N1C,inactive: 90%
10,O=C(CN1C(=O)C2(SCC(=O)N2c2ccc(Cl)cc2)c2ccccc21)NCCc1ccccc1 (stereo not drawn),inactive: 80%
11,CCOc1ccccc1NC(=O)c1c(NC(=O)c2ccncc2)sc2c1CCC(C(C)(C)C)C2 (stereo not drawn),inactive: 142%
12,COc1ccc(Cl)cc1NS(=O)(=O)c1c(C)[nH]c(=O)[nH]c1=O,inactive: 47%
13,Cc1ccc(O)c(NC(=O)CCSc2nc(-c3ccco3)cc(C(F)(F)F)n2)c1,active: 28%
14,CC(C)Oc1ccc(C(=O)Nc2nc3c(s2)CC(C(C)(C)C)CC3)cc1 (stereo not drawn),inactive: 115%
15,O=C(NCC(c1ccc2c(c1)OCO2)N1CCN(c2ccccc2)CC1)c1ccccc1 (stereo not drawn),inactive: 69%
16,Cc1oc2ncn(CC(C)C)c(=O)c2c1C(=O)N(Cc1ccccc1)C(C)C,inactive: 70%
17,CCn1c(C)c(C)c2cc(C(=O)NCc3ccc(OC(C)C)cc3)ccc21,inactive: 90%
18,COc1ccc(NC(=O)Cn2c(=O)n(Cc3ccc4c(c3)OCO4)c(=O)c3ccc(C(=O)NC4CCCCC4)cc32)cc1,inactive: 73%
19,COc1ccc(-c2noc(N3CCC(C(=O)N4CCN(c5ccccc5F)CC4)CC3)n2)cc1,inactive: 100%
20,CCOCCCNc1nc2ccccc2n2c(CC)nnc12,inactive: 122%
21,C=Cc1ccc(Cn2c(=O)cc(C)c3c(C)nn(-c4ccccc4)c32)cc1,active: 17%
22,COc1cc(OC)cc(-c2cc3nc(C)c(CCC(=O)Nc4ccc(C(C)=O)cc4)c(C)n3n2)c1,inactive: 93%

row,Structure (SMILES),survival
1,CSCCC(NS(=O)(=O)c1ccc2c(c1)oc(=O)n2C)C(=O)Nc1ccc(Cl)cc1 (stereo not drawn),inactive: 94%
2,CC(C)c1ccc(CNc2nc(-c3ccco3)nn2C(=O)c2ccc([N+](=O)[O-])cc2)cc1,inactive: 79%
3,COCc1cc(C)nc2sc3c(c12)NC(c1ccc(O)c(OC)c1)N(c1ccccc1)C3=O (stereo not drawn),inactive: 80%
4,COc1ccc(OCC(=O)N(Cc2cccs2)c2ccc(OC)cc2)cc1,inactive: 66%
5,C=CCn1cc(/C=C2\SC(=O)N(C)C2=O)c2ccccc21,inactive: 85%
6,COC(=O)c1ccccc1NC(=O)Cn1c(=O)n(CCC(=O)NCc2ccccc2OC)c(=O)c2ccccc21,inactive: 82%
7,Cc1cccc(NC(=O)CCN2CCN(c3ccccc3F)CC2)c1,inactive: 151%
8,CCOC(=O)c1c(S(=O)(=O)NCC(=O)N2CCN(c3cc(C)ccc3C)CC2)c(C)n(C)c1C,inactive: 71%
9,COc1ccc2occ(C(=O)c3coc4ccc(O)c(CN(C)C)c34)c2c1,inactive: 105%
10,COc1ccccc1NC(=O)CSc1nc(-c2ccc(C)cc2)nc2c1Cc1c(CO)cnc(C)c1O2,active: 49%
11,Cc1nn2c(=O)cc(COC(=O)c3ccc(NC(=O)c4cccc(Br)c4)cc3)nc2s1,inactive: 97%
12,COc1ccc(-c2cn3nc(N4CCCC(C(=O)Nc5ccccc5OC)C4)sc3n2)cc1 (stereo not drawn),inactive: 124%
13,COc1ccc(Cl)cc1S(=O)(=O)Nc1cccc(-c2ccc(N3CCCC3)nn2)c1,inactive: 84%
14,CN(c1ccccc1)S(=O)(=O)c1nnc(NC(=O)COc2ccccc2)s1,inactive: 56%
15,CCOC(=O)c1cc2c(=O)n3ccccc3nc2n(Cc2ccco2)c1=NC(=O)c1ccc(C)c(C)c1,active: 34%
16,O=C(Nc1cc2c(cc1C(=O)c1cccc(Br)c1)OCCO2)c1ccccc1F,active: 28%
17,O=C(Cn1c(=O)oc2cc(S(=O)(=O)N3CCCCCC3)ccc21)Nc1ccc(F)cc1F,inactive: 84%
18,Cc1ccc(-n2c(=O)c3ccc(C(=O)NCc4ccco4)cc3n(CC(=O)Nc3ccccc3C(F)(F)F)c2=O)cc1,inactive: 80%
19,CN(C(=O)Cn1cnc2onc(-c3ccc(F)cc3)c2c1=O)c1ccccc1Cl,inactive: 99%
20,Cc1cc(C)cc(-n2c(C)cc(C(=O)C(=O)Nc3nnc(C)s3)c2C)c1,inactive: 104%
21,Cc1cccc(N2CCN(c3ccc(C(=O)O)cc3NC(=O)c3cccc(Cl)c3)CC2C)c1 (stereo not drawn),inactive: 83%
22,Cc1cccc(C)c1NC(=O)Cn1c(=O)n(CCCS(=O)(=O)C2CCCCC2)c(=O)c2ccccc21,inactive: 84%

row,Structure (SMILES),survival
1,CCc1ccc(-c2nc(SCC(=O)NCC3CCCO3)c(-c3ccc(C)cc3)[nH]2)cc1 (stereo not drawn),inactive: 103%
2,CCCN(C(=O)Cn1ncc2c1-c1ccccc1OC2)c1cccc(C)c1,inactive: 87%
3,COc1ccc(CCNC(=O)c2nc(SCc3ccccc3F)ncc2Cl)cc1OC,inactive: 64%
4,CCOC(=O)C1CCN(c2c(C(=O)c3ccc(OC)cc3)cnc3ccccc23)CC1,inactive: 125%
5,O=C(CSc1nccn1C1CCCC1)Nc1cccc(F)c1,inactive: 113%
6,CSCC[C@@H](C(=O)Nc1cccc(F)c1)N1Cc2ccccc2C1=O,inactive: 90%
7,CCOCCc1nn2c(=O)cc(COC(=O)Cc3ccccc3)nc2s1,active: 17%
8,N#Cc1ccccc1NC(=O)C(=O)NCCc1csc2nc(-c3cccc(F)c3)nn12,inactive: 70%
9,CN1CCN(C(=O)c2ccc(C3SCC(=O)N3Cc3ccco3)cc2)CC1 (stereo not drawn),inactive: 87%
10,CCOC(=O)c1[nH]c(=O)[nH]c1CSc1ccccn1,inactive: 92%
11,COc1ccc(OC)c(CNC(=O)CN(c2ccc(C)cc2)S(=O)(=O)N(C)C)c1,inactive: 88%
12,Cc1cccc(NC(=O)N2CCN(C)c3ncccc32)c1C,inactive: 89%
13,CCOc1ccccc1CNC(=O)c1ccc(NC(=O)N2CC(C)Sc3ccccc32)cc1 (stereo not drawn),inactive: 78%
14,O=C(NC1(C(F)(F)F)C(=O)Nc2c1c(=O)[nH]c(=O)n2-c1ccccc1)c1ccccc1 (stereo not drawn),inactive: 76%
15,COc1ccc2cc3c(N)c(C(=O)Nc4ncc(C)s4)sc3nc2c1,inactive: 64%
16,CCCN(CCC)C(=O)Cn1c(SCc2cccc(C(F)(F)F)c2)nc2cccnc21,inactive: 95%
17,CCOc1ccc(C(=O)NCc2nc3cccnc3n2Cc2cccc(OC)c2)cc1,inactive: 96%
18,CCN(c1ccc(Cl)cc1)S(=O)(=O)c1nnc(NC(=O)c2ccccc2C)s1,active: 8%
19,O=C(NCCCc1nc2ccccc2n1Cc1ccccc1Cl)c1ccco1,inactive: 66%
20,CC(CNC(=O)C1CCN(C(=O)N2CCOc3ccc(Cl)cc32)CC1)c1ccccc1 (stereo not drawn),inactive: 52%
21,CC(=O)Nc1nonc1-c1nc2ccccc2n1Cc1ccc(Cl)cc1Cl,inactive: 88%
22,COc1ccc(NC(=O)CSc2nc3ccccc3n2CC(=O)N2CCCCC2C)cc1 (stereo not drawn),inactive: 88%

row,Structure (SMILES),survival
1,COc1ccc(-c2onc(C)c2C)cc1S(=O)(=O)NCc1ccc(C)o1,inactive: 89%
2,Cc1nn(CCC(=O)NCc2ccc(Cl)cc2)c(=O)c2nn(-c3ccccc3)c(C)c12,active: 0%
3,COc1ccc(CCCc2nnc(SCC(=O)Nc3cccc(C)c3)o2)cc1,inactive: 81%
4,CCOc1cccc(CC(=O)NCc2ccc3c(c2)CCN3C(C)=O)c1OCC,inactive: 83%
5,CCC(C)NC(=O)CCc1c(C)nc2c(c(C)nn2-c2ccc(C)cc2)c1C (stereo not drawn),inactive: 93%
6,Cc1ccc2[nH]cc(C(c3ccccc3)c3ccc(C)s3)c2c1 (stereo not drawn),active: 25%
7,Cc1c(Cl)cccc1NC(=O)CC(c1ccc(F)cc1)N1Cc2ccccc2C1=O (stereo not drawn),active: 37%
8,COCC(C)NC(=O)c1cc2c(=O)n3cccc(C)c3nc2s1 (stereo not drawn),inactive: 65%
9,CCOC(=O)c1ccc(-c2ccc(/C=C(\C#N)c3nc4ccc(C)cc4[nH]3)o2)cc1,active: 32%
10,CCc1ccc(Sc2cc(C(=O)O)c3ccccc3n2)cc1,inactive: 78%
11,COc1ccc(Cn2c(CO)cnc2SCc2ccc(F)cc2)cc1,active: 17%
12,O=C(CN1CCCC1)Nc1ccc(F)cc1,inactive: 97%
13,COc1ccc(-n2nc(C(=O)N(C)c3cc(Cl)ccc3OC)c3c4ccccc4n(C)c3c2=O)cc1,inactive: 88%
14,COc1ccc(S(=O)(=O)c2nnn(-c3ccccc3F)c2C)cc1,inactive: 79%
15,Cc1nn(CCCC(=O)NCc2ccc(OC(C)C)cc2)c(=O)c2c1sc1ccccc12,inactive: 73%
16,Cc1ccc(Cc2nc3ccccc3nc2SCC(=O)N2CCN(c3ccccc3)CC2)cc1,inactive: 84%
17,CCOc1ccccc1NC(=O)C1=C(C)Nc2ncnn2C1c1ccc(NC(C)=O)cc1 (stereo not drawn),inactive: 63%
18,Cc1ccc(NC(=O)CC2Nc3cc(C)c(C)cc3NC2=O)c(C)c1 (stereo not drawn),inactive: 72%
19,N#CC1=C2SCN(C3CCCCC3)CN2C(=O)CC1c1c(F)cccc1Cl (stereo not drawn),inactive: 82%
20,O=[N+]([O-])c1cc(-c2nc(-c3ccco3)no2)ccc1NCc1ccccc1,active: 47%
21,Nn1cnnc1SCC(=O)N(C1CCCCC1)C1CCCCC1,inactive: 85%
22,CCCN1CCN(c2cc3c(cc2F)c(=O)c(S(=O)(=O)c2ccc(CC)cc2)cn3CC)CC1,inactive: 94%
